Target: CDK6-Cdc37 complex (Homo sapiens, UniProt Q00534)
Details: HTRF competition, 6 nM GSTCDK6, 500 nM C-Avi Cdc37

Sequence of CDK6-Cdc37 complex (Q00534 whole entry, one chain of several): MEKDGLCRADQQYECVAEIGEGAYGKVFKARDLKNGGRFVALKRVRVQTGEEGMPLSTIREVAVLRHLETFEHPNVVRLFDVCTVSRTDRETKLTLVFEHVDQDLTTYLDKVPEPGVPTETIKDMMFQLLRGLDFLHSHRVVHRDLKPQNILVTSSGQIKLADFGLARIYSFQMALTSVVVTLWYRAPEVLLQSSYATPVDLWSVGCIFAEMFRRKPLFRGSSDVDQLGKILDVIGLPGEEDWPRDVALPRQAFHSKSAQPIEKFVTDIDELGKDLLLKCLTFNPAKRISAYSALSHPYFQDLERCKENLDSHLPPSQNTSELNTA

B1: p16D84N: p16INK4a mutant in which D84 is mutated to an asparagine (protein)
chain: MEPAAGSSMEPSADWLATAAARGRVEEVRALLEAGALPNAPNSYGRRPIQVMMMGSARVAELLLLHGAEPNCADPATLTRPVHNAAREGFLDTLVVLHRAGARLDVRDAWGRLPVDLAEELGHRDVARYLRAAAGGTRGSNHARIDAAEGPSDIPD
B1 was tested, and the “Displacement of Cdc37 from CDK6-Cdc37 complex (in words)” value (“Displacement of Cdc37” below) was “unable to displace CDK4 or CDK6 from Cdc37”.

B2: p16D108N: p16INK4a mutant, D108 mutated to an asparagine (protein)
chain: MEPAAGSSMEPSADWLATAAARGRVEEVRALLEAGALPNAPNSYGRRPIQVMMMGSARVAELLLLHGAEPNCADPATLTRPVHDAAREGFLDTLVVLHRAGARLDVRNAWGRLPVDLAEELGHRDVARYLRAAAGGTRGSNHARIDAAEGPSDIPD
B2 was tested, and the “Displacement of Cdc37” value was “as effective as wild-type p16INK4a”.

B3: p16M53I: p16INK4a mutant in which M53 is mutated to an isoleucine (protein)
chain: MEPAAGSSMEPSADWLATAAARGRVEEVRALLEAGALPNAPNSYGRRPIQVMIMGSARVAELLLLHGAEPNCADPATLTRPVHDAAREGFLDTLVVLHRAGARLDVRDAWGRLPVDLAEELGHRDVARYLRAAAGGTRGSNHARIDAAEGPSDIPD
For B3, the “Displacement of Cdc37” value was “as effective as authentic p16INK4a”.
